# In article PMC8245553, “Identification of natural product modulators of Merkel cell carcinoma cell growth and survival” (Scientific Reports, 2021):
# Tested on: UISO (VN-MCC) cells
row,IC50 [nM],SMILES
1,~5000,COc1c(C)c2c(c(O)c1C/C=C(\C)CCC(=O)O)C(=O)OC2 [mycophenolic acid]
2,< 20,"CCOC(C)C(C=NNC(N)=S)=NNC(N)=S (stereo not drawn) [Gloxazone, 3-ethoxy-2-oxobutyraldehyde bis(thiosemicarbazone)]"
3,5190,O=C(N[C@H](COC(=O)[C@H](Cc1ccccc1)NC(=O)c1ccccc1)Cc1ccccc1)c1ccccc1 [asperphenamate]
4,40,CCN(CC)C(=S)SSC(=S)N(CC)CC [Disulfiram]

# The remaining lines, values behind:
row,SMILES,IC50 [nM]
1,Cc1[nH]c2ccccc2c1CCNCc1ccc(/C=C/C(=O)NO)cc1 [Panobinostat],28
2,CC1=CC(=O)c2c(O)cccc2C1=O [Plumbagin],~6000
3,C/C=C(/C)C(=O)O[C@H]1C(C)=C2[C@H]([C@@H]1OC(=O)CCCCCCC)[C@@](C)(OC(C)=O)C[C@H](OC(=O)CCC)[C@@]1(O)[C@H]2OC(=O)[C@@]1(C)O [Thapsigargin],900
4,S=C(S)N1CCCC1 [Pyrrolidinedithiocarbamate],210
5,C[n+]1ccc2c(c1)c(O)c1c3c(c4cc(Br)ccc4nc32)C(=O)C[N+]1(C)C [petrosamine B],3140
